This note sets out measurements from ChEMBL document CHEMBL4888484, “Replenishing the malaria drug discovery pipeline: Screening and hit evaluation of the MMV Hit Generation Library 1 (HGL1) against asexual blood stage Plasmodium falciparum ,using a nano luciferase reporter read-out” (2022).

SMILES strings stand for the structures. Out of some 150,000 compounds screened, about 540 (0.36%) showed an effect of 50% or more. Some of the results follow.

The subject of this test is Plasmodium falciparum. Kind of test: Primary screen in NF54 nanoGlo assay, in single point, at 2uM, 72h; a lower Z score goes with more inhibition. The note with it: timepoint 72 hour. Format: functional, Erythrocyte.
On to `Cc1cnc(CNC(=O)Nc2cccc3c4c(oc23)CCCC4)cn1`, for which the “% Inhibition” value is reported as 5% and the Z score was -0.7.
As for `CC[C@@H](C(=O)Nc1ccc(OC)cc1)N1CCC(c2n[nH]cc2C)CC1`, the “% Inhibition” value is listed as -1% and the Z score is 0.2.
For `CC(C)c1nc(C2CCCN(C(=O)C3CCCCN3C)C2)no1` (stereo not given), in that order: -28% and 5.23.
`CCc1cnccc1[C@H](C)NC(=O)N1CC2(CCOCC2)C1`: the “% Inhibition” value was determined as 3% and the Z score was -0.56.
For `CC(C)c1nc(CN2CCC[C@H]2C(=O)O)cs1`, in that order: -17% and 2.27.
For `COc1cc(C)cnc1C(=O)N1CCC[C@](C)(F)C1`, in that order: -12% and 1.49.
Consider `Cc1n[nH]c(C2CN(CC3CCCO3)CCO2)n1` (stereo not given), for which the “% Inhibition” value was -7% and the Z score turned out to be 1.14.
Consider `Cc1nn(C)cc1CN1CCN(C(=O)OC(C)(C)C)[C@H](C)C1`, for which the “% Inhibition” value is given as 7% and the Z score is reported as -0.93.
For `CCCN(CCc1cccc(F)c1)C(=O)C1(N)CC2(CCC2)C1`, in that order: -5% and 0.99.
As for `CC(C)c1nnsc1CN1CC[C@@]2(CCCN(CC3CCC3)C2=O)C1`, the “% Inhibition” value is reported as -4% and the Z score is listed as 0.59.
For `Cc1ccc(-c2nsc3c(=O)n(CC(=O)NCCCc4ccccc4)cnc23)cc1`, in that order: -4% and 0.61.
Turning to `C[C@H](CC1CCCCC1)NC(=O)c1cc2c(cc1Br)NC(=O)CO2`, the “% Inhibition” value is given as -14% and the Z score is recorded as 1.58.
Regarding `Cc1cnc(N2CCCC(C)C2CN)nc1` (stereo not given), the “% Inhibition” value is given as -14% and the Z score amounted to 1.15.
For `CCn1nc(C)c2c(-c3ccccc3)cc(O[C@@H](C)C(=O)Nc3cccc(OC)c3)nc21`, in that order: -17% and 1.87.
For `O=C1OC[C@@H]2CCN(C3CCCC3)Cc3ccccc3N12`, in that order: -5% and 0.82.
For `O[C@@H](CC1CCCC1)CN1CCn2ncnc2C1`, in that order: -6% and 0.83.
In the case of `Cc1ccsc1CNCc1cccc(-c2ccccc2)c1`, the “% Inhibition” value is on record as -1% and the Z score came to 0.17.
For `COCCNC(=O)c1ccc(-n2nc(-c3nnc(C)o3)c(C)c2-c2ccc(OC)cc2)cc1`, in that order: 33% and -8.37.
For `Cc1cccc([C@@H](NC(=O)N(C)CC2(O)CCOCC2)C(C)(C)C)c1`, in that order: -15% and 1.91.
On to `Cc1sc(-c2ccn[nH]2)cc1NC(=O)c1ccc2ccccc2n1`, for which the “% Inhibition” value is given as -11% and the Z score worked out at 1.14.
Take `O=C([C@@H]1COc2ccccc2C1)N1CCC(COc2cc(C3CC3)ncn2)CC1`: the “% Inhibition” value is on record as -3% and the Z score is recorded as 0.31.
For `COC(=O)C1CCC1C(=O)N1CC(OC)C1` (stereo not given), in that order: -3% and 0.54.
For `O=C(Nc1cccc2c1OCCO2)N1CCCCO1`, in that order: 2% and -0.28.
For `CCCNC(=O)C(=O)NCc1ccc(C)cc1`, in that order: -8% and 1.09.
Regarding `O=C(c1cccnc1)N1CC[C@H](OCC2CC2)C1`, the “% Inhibition” value is reported as 2% and the Z score is recorded as -0.25.
For `Cc1nc2ccc(NC(=O)N3C[C@H](OC(C)C)[C@@H](O)C3)cc2[nH]1`, in that order: 1% and -0.18.
For `CC(=O)N1CC[C@H](OC(=O)c2cc(C)c(F)c(C)c2)C1`, in that order: -14% and 1.51.
In the case of `CCN1CCN(C2(C(=O)N(CC)CC)Cc3ccccc3C2)CC1`, the “% Inhibition” value is reported as -18% and the Z score is 2.63.
For `CCn1ccnc(NC2CCCCCC2)c1=O`, in that order: -5% and 0.75.
For `CC(C)(C)[C@@H](N)COc1ccccc1F`, in that order: -11% and 1.12.
For `CC[C@@H](C(=O)N1CCCN(c2nc(CN3CCN(c4ccccc4Cl)CC3)cc(=O)[nH]2)CC1)c1ccccc1`, in that order: -6% and 0.86.
In the case of `COC(=O)C[C@H](C)NC(=O)C1(C#N)CCCC1`, the “% Inhibition” value is given as -14% and the Z score is 2.24.
For the molecule `COc1ccc(CN2CCNC(=O)[C@@H]2CC(=O)N2CCCO2)c(F)c1`, the “% Inhibition” value was -15% and the Z score was found to be 1.56.
For `CCn1cnc2c1CN(S(=O)(=O)c1ccc(C#N)cc1)CC2`, in that order: -9% and 1.04.
For `Cc1ccc(CN(C[C@H](O)COCc2ccccc2)C(C)C)cc1`, in that order: -1% and 0.09.
For the molecule `O=C1[C@H](c2ccccc2)CC2(CCN(Cc3ccccn3)CC2)CN1C1CC1`, the “% Inhibition” value was 11% and the Z score was -1.84.
For `COc1cc(C)ccc1CN1CCc2[nH]cnc2[C@@H]1c1cnc(C)n1C`, in that order: 8% and -1.06.
For the molecule `Cc1nnsc1C(=O)NC1CCC2CN(Cc3ccccc3)CC21` (stereo not given), the “% Inhibition” value was -10% and the Z score came out at 1.94.
Take `CCCOC(=O)N1CCC2(CC1)C[C@@H](c1ccccc1)C(=O)N(C)C2`: the “% Inhibition” value was 2% and the Z score is -0.27.
For `O=C(NCC1Cc2ccccc21)NOC1CCCCO1` (stereo not given), in that order: -11% and 1.53.
For the molecule `Fc1cccc(F)c1CN(Cc1cncnc1)C1CC1`, the “% Inhibition” value was 2% and the Z score is listed as -0.21.
For `O=C(NC[C@H](O)c1ccc2c(c1)OCCO2)C(=O)Nc1ccccc1C(F)(F)F`, in that order: -15% and 1.87.
As to `O=C(C1CCC1)N1CCc2sc(S(=O)(=O)NCc3ccc(F)cc3Cl)cc2C1`, the “% Inhibition” value is given as -5% and the Z score came out at 0.96.
As for `O=C(NCCc1cnn(-c2ccccc2)c1)c1ccc(-n2cnnc2)nc1`, the “% Inhibition” value is on record as -17% and the Z score amounted to 2.33.
Consider `CC1CN(C(=O)CC2NC(=O)N(c3ccc(F)cc3)C2=O)C(C)CO1` (stereo not given), for which the “% Inhibition” value stood at 29% and the Z score is recorded as -3.95.
For `O=C(c1cccc(S(=O)(=O)N2CCCCC2)c1)N1CCn2ncnc2C1`, in that order: -6% and 0.75.
For `CCC(CC)S(=O)(=O)Cc1nnc(-c2ccccc2)o1`, in that order: -3% and 0.33.
For `CCN(C(=O)c1ccc(S(=O)(=O)N2CCOCC2)cc1)c1ccccc1`, in that order: -12% and 2.01.
As to `O=C(NCC1CCN(C(=O)c2ccco2)CC1)C1CCC1`, the “% Inhibition” value is recorded as -20% and the Z score came to 2.05.
Consider `COc1ccccc1OCc1n[nH]c(-c2cc(C(C)(C)C)nc(=O)[nH]2)n1`, for which the “% Inhibition” value was -16% and the Z score is 1.78.
`Cc1ccc(-c2cc(=O)n(CC(=O)Nc3ccc(C)c(Cl)c3)[nH]2)cc1`: the “% Inhibition” value is given as -12% and the Z score was 1.61.
Consider `CC[C@H](NC(=O)c1ccc(N)nc1)c1ncccc1C`, for which the “% Inhibition” value was 0% and the Z score is on record as 0.05.
In the case of `CCc1nn(C)cc1NC(=O)NC[C@H]1C[C@@H]1C(F)(F)F`, the “% Inhibition” value turned out to be 10% and the Z score is recorded as -1.54.
Take `Cc1cccc(C)c1NC(=O)c1cccc(NC(=O)CCc2cc(O)no2)c1`: the “% Inhibition” value turned out to be 1% and the Z score is on record as -0.08.
On to `CCc1ccsc1C(=O)N(C)Cc1ncnn1C`, for which the “% Inhibition” value is reported as 1% and the Z score was -0.09.

A word on the % Inhibition: it is the drop in the measured response relative to a control, in per cent.
